Data as given in article PMC12040169 (PLOS Biology, 2025).
The list shows a part of the results.

System: T1, C. trachomatis L2/434/Bu expressing GFP (CTL2-GFP)
T1 construct: L2/434/Bu GFP intracellular growth in HeLa cells
Set-up: species or system HeLa; C. trachomatis total inclusion area by high-content imaging, normalised to DMSO
Settings: total inclusion area; 28.5 h, 10 µM; inhibitor
Procedure, shortened: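 Following bulk GFP and resorufin fluorescence reads, infected cells were fixed, Hoechst-stained and imaged on a high-content platform. Inclusion total area and number per well served as growth proxies; nuclei counts indicated host viability. MICs were derived as for the fluorescence assay.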

Structure (SMILES)	% of control remaining
O=C(NC1=NCCS1)c1cc2ccccc2o1 [CBK058927]	64.8411
CC1=CC(C)C(CNCCN2CCNCC2)C(C)C1 (stereo not shown) [CBK262832]	78.9693
COc1cccc(CNc2nccc(-n3nc(C)cc3C)n2)c1 [CBK288612]	125.414
COc1ccccc1-c1cn2ccnc2c(N(C)CCN(C)C)n1 [CBK066156]	122.381
O=C(Nc1ccc(F)cc1)c1[nH]c2ccccc2c1NS(=O)(=O)c1ccc(C(F)(F)F)cc1[N+](=O)[O-] [CBK050090]	91.6734
CCC(Oc1ccccc1)C(=O)Nc1ccccc1-c1ccccc1 (stereo not shown) [CBK266031]	64.0747
COc1ccccc1NC(=O)c1ccc(-c2nnc(-c3ccccc3)o2)cc1 [CBK266533]	113.521
O=C(CC(C(=O)O)n1cnc([N+](=O)[O-])n1)c1ccc(Br)cc1 (stereo not shown) [CBK267524]	106.516
Cn1cc(C(O)CNC(=O)NCCc2csc3ccccc23)cn1 (stereo not shown) [CBK305219]	54.7024
CC(C)(C)NC(=O)CN1CCC(c2ccccc2F)CC1 [CBK283499]	118.887
COc1ccc(-n2c(SCC(=O)O)nnc2-c2cccs2)cc1 [CBK265636]	91.36
O=S(=O)(NCc1ccc(CNS(=O)(=O)c2ccccc2)cc1)c1ccccc1 [CBK265471]	96.9682
CCn1ncc(S(=O)(=O)N2CCCC(c3cccc(Cc4cccc(C)c4)n3)C2)c1C (stereo not shown) [CBK286244]	122.236
Cc1ccc2[nH]c(Cc3ccc(NC(=O)CCC4C(=O)Nc5ccccc54)cc3)nc2c1 (stereo not shown) [CBK285824]	106.737
Nc1ccc(C(=O)Nc2ccc(Nc3cc(-c4ccco4)ncn3)cc2)cc1 [CBK091099]	63.0463
O=C(O)CCCc1nc(-c2ccccn2)no1 [CBK010880]	48.0495
c1ccc(N2CCN(c3cccc(-c4ccc5c(c4)OCO5)n3)CC2)nc1 [CBK036851]	115.136
COc1ccc(/C=C(/NC(=O)/C=C/c2ccccc2)C(=O)O)cc1 [CBK264996]	103.801
CCn1cc(NC(=S)Nc2sc3c(c2C(=O)OC)CCC(C)C3)c(C(N)=O)n1 (stereo not shown) [CBK267032]	99.9836
NNC(=O)c1cc(-c2ccccc2)nc2ccc(Br)cc12 [CBK261762]	82.777
CN1CCC(N(C)Cc2cc(Cl)ccc2[N+](=O)[O-])CC1 [CBK261576]	110.887
O=C(c1nc(=O)[nH][nH]1)N1CCN(Cc2ccc(C(F)(F)F)cc2)CC1 [CBK298312]	101.016
O=C(Nc1ccc(Cl)c(Cl)c1)N1CCN(c2n[nH]c(=O)[nH]c2=O)CC1 [CBK297514]	104.943
O=C(O)C1CCN(C(=O)Nc2ccccc2Cl)CC1 [CBK161407]	81.2456
CCc1[nH]nc2c1C1(CN3CCC1CC3)C(C#N)=C(N)O2 (stereo not shown) [CBK267454]	88.7019
CCN(CC)C(=O)CN(CCc1ccc(OC)c(OC)c1)C(=O)NCc1c(Cl)cccc1Cl [CBK158743]	117.241
CCOC(=O)c1cccc(-c2ccc(F)cc2F)n1 [CBK149245]	101.849

Structure (SMILES)	% of control remaining
COc1ccccc1-c1ccc(NC(=O)CCn2cnc3ccccc3c2=O)cc1 [CBK285711]	114.091
Cc1cccc(C(=O)N/N=C/c2ccoc2)c1O [CBK018727]	78.5458
O=C(c1cnn(-c2ccc(Cl)cc2Cl)c1)N1CCOCC1c1ncon1 (stereo not shown) [CBK304231]	49.4956
CCc1c(CC)c(OC(=O)C(N)C(C)C)c2ccccc2c1OC (stereo not shown) [CBK016484C]	84.5186
CCOc1cc(S(=O)(=O)NCCCn2ccnc2)ccc1Cl [CBK269874]	66.328
Cc1nc2c(oc3nc(-c4ccoc4)c4c(c32)CC(C)(C)OC4)c(-c2ccccc2)c1C(=O)O [CBK265286]	123.568
Cc1nc2c(c(=O)[nH]1)CN(Cc1ccc(-c3ccccc3)cc1)CC2 [CBK283952]	88.7856
COc1ccc(OCCN2CCC(C(=O)c3ccc(F)cc3)CC2)cc1 [CBK149136]	65.6695
O=c1c2ccccc2nc(COc2ccccc2)n1O [CBK288482]	42.8416
COc1ccc(-n2c(=O)[nH]cc(C(=O)Nc3cccc(Cl)c3C)c2=O)cc1 [CBK287549]	99.1917
O=C(COc1ccc2ccccc2c1)N[C@@H](C(=O)O)c1ccc(O)cc1 [CBK286571]	69.7473
CCCc1cnc(N2CCOCC2)nc1 [CBK028742]	65.6528
Cc1cc(C)c2nonc2c1S(=O)(=O)NCCN1CCCCC1CO (stereo not shown) [CBK306966]	94.7018
N=c1n(CCN2CCCCC2)c2ccccc2n1CC(O)c1cccs1 (stereo not shown) [CBK262908C]	126.451
COc1cc(C=O)ccc1Oc1nnnn1-c1ccc(C(=O)O)cc1 [CBK267071]	106.547
CCCC(=O)c1ccc(S(=O)(=O)N2CCCN(Cc3ccc(OC)c(F)c3)CC2)cc1 [CBK062926]	90.7404
CCc1nc2ccc(C(=O)Nc3ccc(OC)c(OC)c3)cn2c1N(C)C(=O)Nc1ccccc1OC [CBK145875]	86.0017
NC(=S)c1ccc2c(c1)OCO2 [CBK022803]	75.5944
CCOC(=O)c1ccc(N2C(=O)CC(N3CCN(c4ccc(S(C)(=O)=O)cc4)CC3)C2=O)cc1 (stereo not shown) [CBK268721]	89.0034
CCC1(C)CCCN(Cc2nnnn2-c2ccc(S(C)(=O)=O)cc2)C1 (stereo not shown) [CBK306180]	74.7605
O=C(O)C12CC3CC(C(=O)O)(C1)CC(C(=O)O)(C3)C2 [CBK263442]	105.164
O=C(Nc1nc2nccc(-c3ccccc3)n2n1)c1cccc([N+](=O)[O-])c1 [CBK265414]	108.242
NCC1CCCN1C(=O)c1ccc(Oc2cccc(Br)c2)nc1 (stereo not shown) [CBK304200]	25.5988
Cc1nc(COc2ccccc2)sc1C(=O)N1CCC(C(N)=O)CC1 [CBK202603]	80.3977
c1csc(-c2nnc(C3CCN(Cc4ccsc4)CC3)o2)c1 [CBK285309]	81.0442
COc1ccc2c(c1)C1(CC(=O)N(CCC3CCCCC3)C1=O)C(=O)N2C (stereo not shown) [CBK075147]	78.4911
CC(O)c1ccc(-c2ccc(CNCCCN3CCOCC3)o2)cc1 (stereo not shown) [CBK278178C]	105.475

Structure (SMILES)	% of control remaining
CCC(=O)Nc1nc2ccccc2n1CCCN(C)C [CBK263492]	94.974
COc1ccc([C@@]23CC[C@@H](NC(=O)Nc4ccon4)C[C@@H]2N(C)CC3)cc1OC [CBK051069T]	62.3812
C[C@@H]1CN(c2ccc(C(F)(F)F)c(OCc3ccccc3)n2)CCN1 [CBK003987A]	26.4719
Cc1n[nH]c(C)c1CNC(=O)C1CCN(Cc2ccc(F)cc2)CC1 [CBK282502]	119.612
COCCN(Cc1cc2ccc(C)cc2nc1O)S(=O)(=O)c1ccccc1 [CBK269216]	117.975
Oc1ccccc1/C=N/c1ccc(Cc2ccc(/N=C/c3ccccc3O)c(O)c2)cc1O [CBK261156]	84.5136
CC(NS(=O)(=O)c1ccccc1Cl)C(=O)N1CCCC1 (stereo not shown) [CBK305994]	46.2477
COc1cc(CN2CCN(C/C=C/c3ccccc3)CC2)cc(Br)c1O [CBK261582]	99.1535
O=C(NC(Cc1ccccc1)C(=O)O)c1ccc(C#CC2(O)CCCCC2)cc1 (stereo not shown) [CBK267702]	100.681
OC(CNCCNc1nccc(C(F)(F)F)n1)Cn1ccc2ccccc21 (stereo not shown) [CBK074642]	90.4833
CCCCSc1nc(N)cc(N2CCC(N3CCOC3=O)CC2)n1 [CBK306974]	94.7658
CC(=O)Nc1cccc(C(=O)N2CCN(Cc3ccc4c(c3)OCO4)CC2)c1 [CBK270031]	80.322
O=C(CCn1c(C(F)F)cc2cccnc21)N1CCOCC1 [CBK284956]	110.64
O=C(CCn1c(C(F)F)cc2cccnc21)NCc1cccnc1 [CBK285066]	87.1425
CN(C)C(=O)c1ccc(-c2ccc3c(c2)COC(C2CCN(C(=O)CC4CCCCC4)CC2)O3)cc1 (stereo not shown) [CBK149763]	88.9356
N#CC1=C(N)Oc2cc(N)ccc2C1c1ccc(-c2ccccc2)cc1 (stereo not shown) [CBK261605]	91.8479
Cc1cc(NC(=O)CCCN2C(=O)c3cccc4cccc(c34)C2=O)n(-c2ccccc2)n1 [CBK265874]	81.8783
CS(=O)(=O)Nc1nnc(SCC(=O)Nc2cccc([N+](=O)[O-])c2)s1 [CBK045536]	95.4981
CN1CCN(c2ccc([N+](=O)[O-])c(NCc3ccccc3)c2)CC1 [CBK042199]	78.6749
COc1ccc(Br)cc1C(=O)Nc1cc(-c2nc3ccccc3[nH]2)ccc1Cl [CBK264112]	110.834
CN(CCO)c1ccc(C(=O)N2CCC(N3CCOCC3)CC2)cn1 [CBK306899]	88.7529
O=C(CC1=C(O)C(=O)c2ccccc2C1=O)c1ccccc1 [CBK262002]	94.1886
Cc1ccc(Nc2nc(N/N=C/c3ccccc3)nc(N3CCC(Cc4ccccc4)CC3)n2)cc1 [CBK262296]	83.9635
Cc1nn(-c2ccccc2)c(C)c1C1CC(=O)Nc2c1cnn2C(C)C (stereo not shown) [CBK287925]	110.472
COc1cc(NC(=O)c2ccc3c(c2)C(=O)N(c2c(C)cc(C)cc2C)C3=O)c(C(=O)O)cc1OC [CBK264074]	107.123
